Experimental data: PubChem BioAssay AID686979 (National Center for Advancing Translational Sciences (NCATS), 2013)
Values joined by “and” are separate entries in the source; they are usually repeats but may differ in a detail not shown here. Equal entries are not always repeated. Among all 420,000 compounds or so, about 50,000 (12%) were called active. This list was built around the results that the source calls inconclusive (neither active nor inactive); the mix of calls is not that of the screen. Calls come from the whole dose curve; as a rule, active = well fitted inhibition curve with a large enough effect; inconclusive = small, poorly fitted or top-dose-only effect; inactive = flat fitted curve, though single readings scatter. Potencies of inconclusive entries are left out as doubtful fits.
% is set by controls: 0 for no effect and ±100 for the full control effect; potency is the fitted concentration of half-maximal effect; tags give direction and shape of the fitted curve.

Assay: qHTS for Inhibitors of human tyrosyl-DNA phosphodiesterase 1 (TDP1): qHTS in cells in presence of CPT; note: nearly all actives have a fitted effect of over 55% in size
Settings: chicken DT40 Tdp1-/-;hTDP1 cells + 20 nM CPT, ATP luminescence, 48 h; activity change, negative = growth inhibition: at 46.2 µM (top of the series)
Method in brief: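 Chicken DT40 Tdp1-/- cells complemented with human TDP1, 400 cells/well, exposed to compounds plus 20 nM camptothecin for at least 48 h at 37 C; viability read as ATP content by CellTiter-Glo luminescence.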
In the case of `O=C(Nc1ccc(F)cc1)Nc1sccc1-c1nc2ccccc2s1`, the Potency is reported as inconclusive [inhibitor, single point].
In the case of `COc1ccc(NC(=O)CSCC(=O)Nc2ccccc2N2CCCCC2)cc1`, the Potency is reported as inconclusive [inhibitor, single point].
With `Cc1nc(NC(=O)c2ccccc2)sc1-c1csc(NCCc2ccccc2)n1` the Potency was active: 23.1 µM.
For `O=C1c2cccc3cccc(c23)C(=O)N1c1ccc(O)cc1`, the Potency was “inactive”.
In the case of `CC(=O)NC(CC(=O)OCC(=O)c1c(N)n(C)c(=O)n(C)c1=O)c1ccccc1` (stereo not drawn), the Potency is reported as inconclusive [inhibitor, single point].
In the case of `COc1ccc(CNC(=O)NCc2ccc(OC)c(OC)c2)cc1OC`, the Potency is reported as “inactive”.
With `Cc1nc(-c2ccc(F)cc2)sc1CCNC(=O)C(=O)Nc1ccc2c(c1)OCCO2` the Potency was inconclusive [inhibitor, single point].
In the case of `O=C(Nc1ccc([N+](=O)[O-])cc1)Nc1ccc(OC(F)F)c(Cl)c1`, the Potency is reported as active: 2.31 µM.
With `CC(=O)N1CCN(C(=O)c2ccc(Cl)c(S(=O)(=O)N3CC(C)OC(C)C3)c2)CC1` (stereo not drawn) the Potency was “inactive”.
With `NS(=O)(=O)c1ccc(NC(=O)c2ccccc2C(=O)N2CCCCC2)cc1` the Potency was “inactive”.
For `COc1ccccc1N1CCN(C(=O)c2ccc(S(=O)(=O)N3CCCCCC3)cc2)CC1`, the Potency was inconclusive [inhibitor, single point].
In the case of `COc1ccc(C(=O)CN2C(=O)NC3(CCc4ccccc43)C2=O)c(OC)c1` (stereo not drawn), the Potency is reported as “inactive”.
With `C=C(C)COC(=O)c1ccccc1C(=O)OCC1(C)CO1` (stereo not drawn) the Potency was inconclusive [inhibitor, partial curve].
In the case of `COc1ccc(C2CC(c3ccc(Br)cc3)=NN2C(=O)CN2CCCC2)cc1` (stereo not drawn), the Potency is reported as inconclusive [inhibitor, single point].
For `CCOC(=O)C1CCN(C(=O)COC(=O)/C=C/c2ccc([N+](=O)[O-])cc2)CC1`, the Potency was inconclusive [inhibitor, single point].
With `CCC(=O)c1ccc(Oc2nc3c(c(=O)n(C)c(=O)n3C)n2CC)cc1` the Potency was inconclusive [inhibitor, single point].
For `CCC(=O)/C=C1/Sc2ccc(OC)cc2N1CCO`, the Potency was inconclusive [inhibitor, single point].
With `COc1ccc(-c2cc(C(F)(F)F)nc(NCCc3ccccc3)n2)cc1OC` the Potency was “inactive”.
In the case of `CCCN(C(=O)c1ccc(N2CCCC2=O)cc1)C1CCS(=O)(=O)C1` (stereo not drawn), the Potency is reported as “inactive”.
With `COc1ccc2oc(=O)c(C(=O)N3CCN(c4ccc(C)cc4)CC3)cc2c1` the Potency was “inactive”.
With `COc1ccc(CC(=O)Nc2ccc(-c3nc4ccccc4s3)c(C)c2)cc1OC` the Potency was inconclusive [inhibitor, single point].
In the case of `CC(C(=O)NC1CCCC1)n1c(-c2ccncc2)nc2ccccc21` (stereo not drawn), the Potency is reported as “inactive”.
For `Cc1nc2ccc(NC(=O)CSc3ccccc3)cc2s1`, the Potency was inconclusive [inhibitor, single point].
With `CCOc1ccc2[nH]cc(S(=O)(=O)c3ccc(Cl)cc3)c(=O)c2c1` the Potency was active: 9.2 µM.
With `Cc1ccccc1C(=O)Nc1cc(S(=O)(=O)N2CCOCC2)ccc1N1CCN(C)CC1` the Potency was “inactive”.
In the case of `CCOc1ccc(-c2n[nH]c(=S)n2/N=C/c2cc3c(cc2[N+](=O)[O-])OCO3)cc1`, the Potency is reported as inconclusive [inhibitor, single point].
With `COc1cccc(CNC(=O)c2cc(S(=O)(=O)N3CCCCC3)c[nH]2)c1` the Potency was inconclusive [inhibitor, single point].
For `COc1ccc(/C=C/C(=O)NC(=S)Nc2ccc(Br)cn2)cc1`, the Potency was inconclusive [inhibitor, single point].
In the case of `Cc1cc(NC(=O)CSc2nnc(-c3ccc(O)cc3)o2)no1`, the Potency is reported as “inactive”.
For `CCOc1ccc(NC(=O)Nc2ccc(Br)cn2)cc1`, the Potency was “inactive”.
In the case of `O=c1ccn([C@@H]2O[C@H](CNCC3=Cc4cc(O)ccc4OC3)[C@@H](O)[C@H]2O)c(=O)[nH]1`, the Potency is reported as “inactive”.
With `Cc1ccc(S(=O)(=O)NC(=O)NN2CC3CCCC3C2)cc1` (stereo not drawn) the Potency was “inactive”.
In the case of `CC(C)(C)OC(=O)N1CCN(CCNC(=O)c2ccccc2)CC1`, the Potency is reported as “inactive”.
With `O=C(c1noc2c1CCCCC2)N1CCN(C(c2ccccc2)c2ccccc2)CC1` the Potency was active: 13 µM.
With `COc1cc(NC(=O)c2csc(N)n2)cc(C(=O)Nc2cccc(C(F)(F)F)c2)c1` the Potency was active: 2.91 µM and active: 4.61 µM.
In the case of `COc1ccc2nc(NC(C)=O)sc2c1`, the activity change, negative = growth inhibition is reported as inconclusive: -35.4% [inhibitor].
With `COc1ccc(C(=O)c2sc3nc(-c4ccc(OC)cc4)ccc3c2N)cc1` the Potency was “inactive”.
With `CSc1nn(Cc2ccc(C)cc2)c(N)c1S(=O)(=O)c1ccccc1` the Potency was active: 20.6 µM.
For `OCC1(Cc2ccc(Cl)cc2)CCN(Cc2ccccc2F)CC1`, the Potency was inconclusive [inhibitor, partial curve].
With `O=C(CCCn1c(=O)c2cccn2c2ccccc21)NCCc1ccc(Cl)cc1` the Potency was inconclusive [inhibitor, single point].
For `COCC1CCCN(Cc2nc(C(c3ccccc3)c3ccccc3)no2)C1` (stereo not drawn), the Potency was inconclusive [inhibitor, single point].
With `COc1cc([N+](=O)[O-])ccc1NC(=S)Nn1cnnc1` the Potency was “inactive”.
For `C=CCn1c2ccccc2c2nnc(SCC(=O)OCN3C(=O)c4ccccc4C3=O)nc21`, the activity change, negative = growth inhibition was inconclusive: -0.397% [inhibitor].
With `CCC(C)[C@H](NC(=O)c1cc2cc(Cl)ccc2n1C)C(=O)N1CCC[C@H]1C(=O)O` (stereo partly drawn) the Potency was “inactive”.
In the case of `Cc1sc(NC(=O)c2cc(-c3ccc(Cl)cc3)nc3ccccc23)c(C(N)=O)c1C`, the Potency is reported as active: 8.2 µM.
In the case of `Cc1oc2c(Cl)c(Cl)c(O)c(CN(C)C)c2c1C(=O)c1ccc(Cl)cc1`, the Potency is reported as inconclusive [inhibitor, partial curve].
For `Cc1cccc(NC(=O)COC(=O)c2ccc(S(=O)(=O)N3CCCCCC3)cc2)c1`, the Potency was “inactive”.
With `COC(=O)c1cccnc1-n1c(=O)c2cccnc2n(Cc2cccc([N+](=O)[O-])c2)c1=O` the Potency was inconclusive [inhibitor, partial curve].
